# Results published in the supplement of paper PMC12423691.
# This is one part of the list. Binding of human transcription factors and regulators to the viral nucleoprotein by AlphaScreen, crude cell-free proteins, amounts not normalised, one pass. Fold of the Venus control; higher = more signal. No active / inactive call. Single-pass screen; sequences are the whole Swiss-Prot entries looked up by name.
# B1: NKX2-5, P52952 (protein)
# chain: MFPSPALTPTPFSVKDILNLEQQQRSLAAAGELSARLEATLAPSSCMLAAFKPEAYAGPEAAAPGLPELRAELGRAPSPAKCASAFPAAPAFYPRAYSDPDPAKDPRAEKKELCALQKAVELEKTEADNAERPRARRRRKPRVLFSQAQVYELERRFKQQRYLSAPERDQLASVLKLTSTQVKIWFQNRRYKCKRQRQDQTLELVGLPPPPPPPARRIAVPVLVRDGKPCLGDSAPYAPAYGVGLNPYGYNAYPAYPGYGGAACSPGYSCTAAYPAGPSPAQPATAAANNNFVNFGVGDLNAVQSPGIPQSNSGVSTLHGIRAW
# B2: ATF1, P18846 (protein)
# chain: MEDSHKSTTSETAPQPGSAVQGAHISHIAQQVSSLSESEESQDSSDSIGSSQKAHGILARRPSYRKILKDLSSEDTRGRKGDGENSGVSAAVTSMSVPTPIYQTSSGQYIAIAPNGALQLASPGTDGVQGLQTLTMTNSGSTQQGTTILQYAQTSDGQQILVPSNQVVVQTASGDMQTYQIRTTPSATSLPQTVVMTSPVTLTSQTTKTDDPQLKREIRLMKNREAARECRRKKKEYVKCLENRVAVLENQNKTLIEELKTLKDLYSNKSV
# B3: PHB, P35232 (protein)
# chain: MAAKVFESIGKFGLALAVAGGVVNSALYNVDAGHRAVIFDRFRGVQDIVVGEGTHFLIPWVQKPIIFDCRSRPRNVPVITGSKDLQNVNITLRILFRPVASQLPRIFTSIGEDYDERVLPSITTEILKSVVARFDAGELITQRELVSRQVSDDLTERAATFGLILDDVSLTHLTFGKEFTEAVEAKQVAQQEAERARFVVEKAEQQKKAAIISAEGDSKAAELIANSLATAGDGLIELRKLEAAEDIAYQLSRSRNITYLPAGQSVLLQLPQ
# B4: HSF2, Q03933 (protein)
# chain: MKQSSNVPAFLSKLWTLVEETHTNEFITWSQNGQSFLVLDEQRFAKEILPKYFKHNNMASFVRQLNMYGFRKVVHIDSGIVKQERDGPVEFQHPYFKQGQDDLLENIKRKVSSSKPEENKIRQEDLTKIISSAQKVQIKQETIESRLSELKSENESLWKEVSELRAKHAQQQQVIRKIVQFIVTLVQNNQLVSLKRKRPLLLNTNGAQKKNLFQHIVKEPTDNHHHKVPHSRTEGLKPRERISDDIIIYDVTDDNADEENIPVIPETNEDVISDPSNCSQYPDIVIVEDDNEDEYAPVIQSGEQNEPARESLSSGSDGSSPLMSSAVQLNGSSSLTSEDPVTMMDSILNDNINLLGKVELLDYLDSIDCSLEDFQAMLSGRQFSIDPDLLVDLFTSSVQMNPTDYINNTKSENKGLETTKNNVVQPVSEEGRKSKSKPDKQLIQYTAFPLLAFLDGNPASSVEQASTTASSEVLSSVDKPIEVDELLDSSLDPEPTQSKLVRLEPLTEAEASEATLFYLCELAPAPLDSDMPLLDS
# B5: LZTR1, Q8N653 (protein)
# chain: MAGPGSTGGQIGAAALAGGARSKVAPSVDFDHSCSDSVEYLTLNFGPFETVHRWRRLPPCDEFVGARRSKHTVVAYKDAIYVFGGDNGKTMLNDLLRFDVKDCSWCRAFTTGTPPAPRYHHSAVVYGSSMFVFGGYTGDIYSNSNLKNKNDLFEYKFATGQWTEWKIEGRLPVARSAHGATVYSDKLWIFAGYDGNARLNDMWTIGLQDRELTCWEEVAQSGEIPPSCCNFPVAVCRDKMFVFSGQSGAKITNNLFQFEFKDKTWTRIPTEHLLRGSPPPPQRRYGHTMVAFDRHLYVFGGAADNTLPNELHCYDVDFQTWEVVQPSSDSEVGGAEVPERACASEEVPTLTYEERVGFKKSRDVFGLDFGTTSAKQPTQPASELPSGRLFHAAAVISDAMYIFGGTVDNNIRSGEMYRFQFSCYPKCTLHEDYGRLWESRQFCDVEFVLGEKEECVQGHVAIVTARSRWLRRKITQARERLAQKLEQEAAPVPREAPGVAAGGARPPLLHVAIREAEARPFEVLMQFLYTDKIKYPRKGHVEDVLLIMDVYKLALSFQLCRLEQLCRQYIEASVDLQNVLVVCESAARLQLSQLKEHCLNFVVKESHFNQVIMMKEFERLSSPLIVEIVRRKQQPPPRTPLDQPVDIGTSLIQDMKAYLEGAGAEFCDITLLLDGHPRPAHKAILAARSSYFEAMFRSFMPEDGQVNISIGEMVPSRQAFESMLRYIYYGEVNMPPEDSLYLFAAPYYYGFYNNRLQAYCKQNLEMNVTVQNVLQILEAADKTQALDMKRHCLHIIVHQFTKVSKLPTLRSLSQQLLLDIIDSLASHISDKQCAELGADI
# B6: FOXP3, Q9BZS1 (protein)
# chain: MPNPRPGKPSAPSLALGPSPGASPSWRAAPKASDLLGARGPGGTFQGRDLRGGAHASSSSLNPMPPSQLQLPTLPLVMVAPSGARLGPLPHLQALLQDRPHFMHQLSTVDAHARTPVLQVHPLESPAMISLTPPTTATGVFSLKARPGLPPGINVASLEWVSREPALLCTFPNPSAPRKDSTLSAVPQSSYPLLANGVCKWPGCEKVFEEPEDFLKHCQADHLLDEKGRAQCLLQREMVQSLEQQLVLEKEKLSAMQAHLAGKMALTKASSVASSDKGSCCIVAAGSQGPVVPAWSGPREAPDSLFAVRRHLWGSHGNSTFPEFLHNMDYFKFHNMRPPFTYATLIRWAILEAPEKQRTLNEIYHWFTRMFAFFRNHPATWKNAIRHNLSLHKCFVRVESEKGAVWTVDELEFRKKRSQRPSRCSNPTPGP
# B7: ZNF165, P49910 (protein)
# chain: MATEPKKAAAQNSPEDEGLLIVKIEEEEFIHGQDTCLQRSELLKQELCRQLFRQFCYQDSPGPREALSRLRELCCQWLKPEIHTKEQILELLVLEQFLTILPGDLQAWVHEHYPESGEEAVTILEDLERGTDEAVLQVQAHEHGQEIFQKKVSPPGPALNVKLQPVETKAHFDSSEPQLLWDCDNESENSRSMPKLEIFEKIESQRIISGRISGYISEASGESQDICKSAGRVKRQWEKESGESQRLSSAQDEGFGKILTHKNTVRGEIISHDGCERRLNLNSNEFTHQKSCKHGTCDQSFKWNSDFINHQIIYAGEKNHQYGKSFKSPKLAKHAAVFSGDKTHQCNECGKAFRHSSKLARHQRIHTGERCYECNECGKSFAESSDLTRHRRIHTGERPFGCKECGRAFNLNSHLIRHQRIHTREKPYECSECGKTFRVSSHLIRHFRIHTGEKPYECSECGRAFSQSSNLSQHQRIHMRENLLM
# B8: TAF13, Q15543 (protein)
# chain: MADEEEDPTFEEENEEIGGGAEGGQGKRKRLFSKELRCMMYGFGDDQNPYTESVDILEDLVIEFITEMTHKAMSIGRQGRVQVEDIVFLIRKDPRKFARVKDLLTMNEELKRARKAFDEANYGS
# B9: SALL1, Q9NSC2 (protein)
# chain: MSRRKQAKPQHFQSDPEVASLPRRDGDTEKGQPSRPTKSKDAHVCGRCCAEFFELSDLLLHKKNCTKNQLVLIVNENPASPPETFSPSPPPDNPDEQMNDTVNKTDQVDCSDLSEHNGLDREESMEVEAPVANKSGSGTSSGSHSSTAPSSSSSSSSSSGGGGSSSTGTSAITTSLPQLGDLTTLGNFSVINSNVIIENLQSTKVAVAQFSQEARCGGASGGKLAVPALMEQLLALQQQQIHQLQLIEQIRHQILLLASQNADLPTSSSPSQGTLRTSANPLSTLSSHLSQQLAAAAGLAQSLASQSASISGVKQLPPIQLPQSSSGNTIIPSNSGSSPNMNILAAAVTTPSSEKVASSAGASHVSNPAVSSSSSPAFAISSLLSPASNPLLPQQASANSVFPSPLPNIGTTAEDLNSLSALAQQRKSKPPNVTAFEAKSTSDEAFFKHKCRFCAKVFGSDSALQIHLRSHTGERPFKCNICGNRFSTKGNLKVHFQRHKEKYPHIQMNPYPVPEHLDNIPTSTGIPYGMSIPPEKPVTSWLDTKPVLPTLTTSVGLPLPPTLPSLIPFIKTEEPAPIPISHSATSPPGSVKSDSGGPESATRNLGGLPEEAEGSTLPPSGGKSEESGMVTNSVPTASSSVLSSPAADCGPAGSATTFTNPLLPLMSEQFKAKFPFGGLLDSAQASETSKLQQLVENIDKKATDPNECIICHRVLSCQSALKMHYRTHTGERPFKCKICGRAFTTKGNLKTHYSVHRAMPPLRVQHSCPICQKKFTNAVVLQQHIRMHMGGQIPNTPVPDSYSESMESDTGSFDEKNFDDLDNFSDENMEDCPEGSIPDTPKSADASQDSLSSSPLPLEMSSIAALENQMKMINAGLAEQLQASLKSVENGSIEGDVLTNDSSSVGGDMESQSAGSPAISESTSSMQALSPSNSTQEFHKSPSIEEKPQRAVPSEFANGLSPTPVNGGALDLTSSHAEKIIKEDSLGILFPFRDRGKFKNTACDICGKTFACQSALDIHYRSHTKERPFICTVCNRGFSTKGNLKQHMLTHQMRDLPSQLFEPSSNLGPNQNSAVIPANSLSSLIKTEVNGFVHVSPQDSKDTPTSHVPSGPLSSSATSPVLLPALPRRTPKQHYCNTCGKTFSSSSALQIHERTHTGEKPFACTICGRAFTTKGNLKVHMGTHMWNSTPARRGRRLSVDGPMTFLGGNPVKFPEMFQKDLAARSGSGDPSSFWNQYAAALSNGLAMKANEISVIQNGGIPPIPGSLGSGNSSPVSGLTGNLERLQNSEPNAPLAGLEKMASSENGTNFRFTRFVEDSKEIVTS
# B10: XCL1, P47992 (protein)
# chain: MRLLILALLGICSLTAYIVEGVGSEVSDKRTCVSLTTQRLPVSRIKTYTITEGSLRAVIFITKRGLKVCADPQATWVRDVVRSMDRKSNTRNNMIQTKPTGTQQSTNTAVTLTG
# Target: nucleoprotein N of Crimean-Congo hemorrhagic fever virus
# Assay: AlphaScreen luminescence signal relative to Venus negative control (fold); higher = stronger binding to CCHFV N
# Description: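 AlphaScreen binding of cell-free made, FLAG-GST-tagged human transcription factors and regulators (crude translation products) to biotinylated N protein; signal as fold of the FLAG-GST-Venus control. One pass.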
row,Binder,AlphaScreen luminescence signal
1,B1,2.79
2,B2,1.67
3,B3,2.79
4,B4,1.95
5,B5,3.44
6,B6,1.86
7,B7,1.72
8,B8,1.58
9,B9,2.6
10,B10,2.05
